# PubChem BioAssay AID504832 (National Center for Advancing Translational Sciences (NCATS), 2011)
# The campaign covered roughly 310,000 compounds. About 18,000 (5.8%) were called active. The shares of active, inactive and inconclusive entries below differ from those in the screen. Calls follow the shape of the dose curve; as a rule, active = well fitted inhibition curve with a large enough effect; inconclusive = small, poorly fitted or top-dose-only effect, or another doubt; inactive = no such curve, though single readings can be large or run the other way. Potencies of inconclusive entries are left out as doubtful fits.
# Experiment: Primary qHTS for delayed death inhibitors of the malarial parasite plastid, 48 hour incubation
# Conditions: P. falciparum luciferase growth in erythrocytes; series mostly up to 28.7 µM; activity change, negative = inhibition: at the top concentration
# Method in brief: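 Luciferase-expressing parasites in RBCs, 2% Hct / 0.1% parasitemia final; RPMI 1640 + 0.5% Albumax; 37 C, 5% CO2, one generation; luminescence read-out, lower signal = inhibition.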
# % is scaled to controls: 0 for no effect and ±100 for the full control effect; potency is read from the fitted curve at half-maximal effect; tags tell the direction and shape of the fitted curve.
SMILES,Potency,"activity change, negative = inhibition"
CCOc1ncccc1C(=O)N1CCN(S(=O)(=O)c2ccc3c(c2)OCCO3)CC1,"inconclusive [inhibitor, single point]",–
CC(=O)N1CCc2[nH]c3ccc(C)cc3c2C1,–,inactive: 5.11%
CCCCNC(=O)/C=C/c1ccc(OC)c(Br)c1,–,inactive: -9.88%
Cc1ccc(C(C#N)c2ccc(Cl)nn2)cc1 (stereo not given),"inconclusive [inhibitor, single point]",–
Cc1ccc2c(c1)C1CN(C)CCC1N2S(=O)(=O)c1ccccc1F (stereo not given),"inconclusive [inhibitor, single point]",–
COc1ccccc1CN1CCC(CNS(=O)(=O)c2cc(-c3cc(C)no3)ccc2OC)CC1,"inconclusive [inhibitor, single point]",–
C[C@]12C=CC(=O)N[C@@H]1CC[C@@H]1C2CC[C@]2(C)C(C(=O)Nc3cc(C(F)(F)F)ccc3C(F)(F)F)CC[C@@H]12 (stereo not given in full),active: 4.78 µM,–
Cc1cccc(NC(=O)CNC(=O)c2cccc(-n3cccc3)c2)c1C,–,inactive: 5.11%
O=c1c2ccccc2oc2ccc(Oc3ccccc3)cc12,–,inactive: 109%
CCC(C)C(NC(=O)c1ccccc1NC(=O)c1ccc(OC)cc1)C(=O)NCc1ccco1 (stereo not given),"inconclusive [inhibitor, partial curve]",–
COc1ccc(C(C(=O)NC2CCCC2)N(C(=O)c2ccco2)c2cc3c(cc2C(C)=O)OCO3)cc1 (stereo not given),–,inactive: -25.3%
CC(=O)Nc1ccc(S(=O)(=O)N(C)CC(=O)N/N=C/c2ccncc2)cc1,–,inactive: -26.5%
CC1C(=O)N(Cc2cccc(F)c2)c2ccccc2N1C(=O)c1ccccc1 (stereo not given),"inconclusive [inhibitor, partial curve]",–
Cc1ccc(NC(=O)N2CCN(C(=O)c3ccco3)CC2)cc1Cl,"inconclusive [inhibitor, single point]",–
CC(C)(CNC(=O)c1ccc(Br)o1)CNC(=O)c1ccc(Br)o1,–,inactive: 0.28%
O=C(CCCn1c(SCc2cccc(F)c2)nc2ccccc2c1=O)NCC1CCCO1 (stereo not given),"inconclusive [inhibitor, single point]",–
COc1ccc(C)cc1C(=O)CCC(=O)Nc1ccccc1N1CCOCC1,"inconclusive [inhibitor, single point]",–
CCc1nc2ccccc2n1CCc1ccccc1,"inconclusive [inhibitor, partial curve]",–
N#Cc1c(N2CCCC2)nc(N)c2c(N)nc(N3CCCC3)cc12,"inconclusive [inhibitor, single point]",–
COc1ccc(CN2CCN(Cc3ccc(C(F)(F)F)cc3)CC2)c(OC)c1,–,inactive: -17.7% [at 0.00184 µM]
